The supplement of paper PMC8728848
This is one part of the list.

Key:
Assay in all cases: glycan array binding signal (z-score within array); higher = stronger binding
Conditions in all cases: glycan notation: IUPAC condensed, linker removed
[1] = target: Fuc(a1-3)[Gal(b1-4)]GlcNAc(b1-2)Man(a1-3)[Fuc(a1-3)[Gal(b1-4)]GlcNAc(b1-2)Man(a1-6)]Man(b1-4)GlcNAc(b1-4)[Fuc(a1-6)]GlcNAc
In short: (§1)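 The binding signal is a Z-score computed within each array. Data were drawn from 3228 arrays in the Consortium for Functional Glycomics database, restricted to those with a known protein sequence. Scores were averaged over arrays of the same protein sequence at different concentrations or buffers, and over linkers, and negative values can be taken as non-binding.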

[2] = target: Fuc(a1-3)[Gal(b1-4)]GlcNAc(b1-3)Gal(b1-3)[Fuc(a1-4)]GlcNAc
In short: as §1

[3] = target: Fuc(a1-3)[Gal(b1-4)]GlcNAc(b1-3)Gal(b1-4)[Fuc(a1-3)]GlcNAc
In short: as §1

[4] = target: Fuc(a1-3)[Gal(b1-4)]GlcNAc(b1-3)Gal(b1-4)[Fuc(a1-3)]GlcNAc(b1-3)Gal(b1-4)[Fuc(a1-3)]GlcNAc
In short: as §1

[5] = target: Fuc(a1-3)[Gal(b1-4)]GlcNAc(b1-3)GalNAc
In short: as §1

[6] = target: Fuc(a1-3)[Gal(b1-4)]GlcNAc(b1-4)Gal(b1-4)[Fuc(a1-3)]GlcNAc
In short: as §1

[7] = target: Fuc(a1-3)[Gal(b1-4)]GlcNAc(b1-4)Gal(b1-4)[Fuc(a1-3)]GlcNAc(b1-4)Gal(b1-4)[Fuc(a1-3)]GlcNAc
In short: as §1

[8] = target: Fuc(a1-3)[Gal(b1-4)]GlcNAc(b1-6)GalNAc
In short: as §1

[9] = target: Fuc(a1-3)[Gal(b1-4)]GlcNAc(b1-6)[Gal(b1-3)GlcNAc(b1-3)]Gal(b1-4)Glc
In short: as §1

[10] = target: Fuc(a1-3)[Gal(b1-4)]GlcNAc6S
In short: as §1

[11] = target: Fuc(a1-3)[Gal3S(b1-4)]Glc
In short: as §1

[12] = target: Fuc(a1-3)[Gal3S(b1-4)]GlcNAc
In short: as §1

[13] = target: Fuc(a1-3)[Gal3S(b1-4)]GlcNAc6S
In short: as §1

[14] = target: Fuc(a1-3)[GalNAc(b1-4)]GlcNAc
In short: as §1

[15] = target: Fuc(a1-3)[GalNAc(b1-4)]GlcNAc6S
In short: as §1

[16] = target: Fuc(a1-4)GlcNAc
In short: as §1

[17] = target: Fuc(b1-3)GlcNAc
In short: as §1

[18] = target: Gal(a1-2)Gal
In short: as §1

[19] = target: Gal(a1-3)Gal
In short: as §1

[20] = target: Gal(a1-3)Gal(b1-3)GlcNAc
In short: as §1

[21] = target: Gal(a1-3)Gal(b1-3)GlcNAc(b1-2)Man
In short: as §1

[22] = target: Gal(a1-3)Gal(b1-3)GlcNAc(b1-2)Man(a1-3)[Gal(a1-3)Gal(b1-3)GlcNAc(b1-2)Man(a1-6)]Man(b1-4)GlcNAc(b1-4)GlcNAc
In short: as §1

[23] = target: Gal(a1-3)Gal(b1-3)GlcNAc(b1-3)GalNAc
In short: as §1

[24] = target: Gal(a1-3)Gal(b1-3)GlcNAc(b1-6)GalNAc
In short: as §1

[25] = target: Gal(a1-3)Gal(b1-3)[Fuc(a1-4)]GlcNAc(b1-2)Man(a1-3)[Gal(a1-3)Gal(b1-3)[Fuc(a1-4)]GlcNAc(b1-2)Man(a1-6)]Man(b1-4)GlcNAc(b1-4)GlcNAc
In short: as §1

[26] = target: Gal(a1-3)Gal(b1-4)Glc
In short: as §1

[27] = target: Gal(a1-3)Gal(b1-4)GlcNAc
In short: as §1

[28] = target: Gal(a1-3)Gal(b1-4)GlcNAc(b1-2)Man
In short: as §1

[29] = target: Gal(a1-3)Gal(b1-4)GlcNAc(b1-2)Man(a1-3)[Gal(a1-3)Gal(b1-4)GlcNAc(b1-2)Man(a1-6)]Man(b1-4)GlcNAc(b1-4)GlcNAc
In short: as §1

[30] = target: Gal(a1-3)Gal(b1-4)GlcNAc(b1-3)GalNAc
In short: as §1

[31] = target: Gal(a1-3)Gal(b1-4)GlcNAc(b1-6)GalNAc
In short: as §1

[32] = target: Gal(a1-3)Gal(b1-4)[Fuc(a1-3)]GlcNAc
In short: as §1

[33] = target: Gal(a1-3)Gal(b1-4)[Fuc(a1-3)]GlcNAc(b1-2)Man(a1-3)[Gal(a1-3)Gal(b1-4)[Fuc(a1-3)]GlcNAc(b1-2)Man(a1-6)]Man(b1-4)GlcNAc(b1-4)GlcNAc
In short: as §1

[34] = target: Gal(a1-3)GalNAc
In short: as §1

[35] = target: Gal(a1-3)[Gal(a1-4)]Gal(b1-4)GlcNAc
In short: as §1

[36] = target: Gal(a1-4)Gal(b1-3)GlcNAc(b1-2)Man(a1-3)[Gal(a1-4)Gal(b1-3)GlcNAc(b1-2)Man(a1-6)]Man(b1-4)GlcNAc(b1-4)GlcNAc
In short: as §1

[37] = target: Gal(a1-4)Gal(b1-4)Glc
In short: as §1

[38] = target: Gal(a1-4)Gal(b1-4)GlcNAc
In short: as §1

B1: LCA (Lens culinaris), P02870 (protein)
chain: MASLQTQMISFYLIFLSILLTTIFFFKVNSTETTSFSITKFSPDQKNLIFQGDGYTTKGKLTLTKAVKSTVGRALYSTPIHIWDRDTGNVANFVTSFTFVIDAPSSYNVADEFTFFIAPVDTKPQTGGGYLGVFNSKEYDKTSQTVAVEFDTFYNAAWDPSNKERHIGIDVNSIKSVNTKSWNLQNGERANVVIAFNAATNVLTVTLTYPNSLEEENVTSYTLNEVVPLKDVVPEWVRIGFSATTGAEFAAHEVHSWSFHSELGGTSSSKQAADA
glycan array binding signal (z-score) [1]: -0.245 | glycan array binding signal (z-score) [2]: -0.164 | glycan array binding signal (z-score) [3]: -0.17 | glycan array binding signal (z-score) [4]: -0.236 | glycan array binding signal (z-score) [5]: -0.185 | glycan array binding signal (z-score) [6]: -0.205 | glycan array binding signal (z-score) [7]: -0.222 | glycan array binding signal (z-score) [8]: -0.194 | glycan array binding signal (z-score) [9]: -0.233 | glycan array binding signal (z-score) [10]: -0.21 | glycan array binding signal (z-score) [11]: -0.229 | glycan array binding signal (z-score) [12]: -0.201 | glycan array binding signal (z-score) [13]: -0.197 | glycan array binding signal (z-score) [14]: -0.176 | glycan array binding signal (z-score) [15]: -0.185 | glycan array binding signal (z-score) [16]: -0.198 | glycan array binding signal (z-score) [17]: -0.186 | glycan array binding signal (z-score) [18]: -0.221 | glycan array binding signal (z-score) [19]: -0.221 | glycan array binding signal (z-score) [20]: -0.21 | glycan array binding signal (z-score) [21]: -0.089 | glycan array binding signal (z-score) [22]: -0.202 | glycan array binding signal (z-score) [23]: -0.227 | glycan array binding signal (z-score) [24]: -0.193 | glycan array binding signal (z-score) [25]: -0.319 | glycan array binding signal (z-score) [26]: -0.218 | glycan array binding signal (z-score) [27]: -0.22 | glycan array binding signal (z-score) [28]: -0.26 | glycan array binding signal (z-score) [29]: -0.078 | glycan array binding signal (z-score) [30]: -0.241 | glycan array binding signal (z-score) [31]: -0.219 | glycan array binding signal (z-score) [32]: -0.224 | glycan array binding signal (z-score) [33]: -0.194 | glycan array binding signal (z-score) [34]: -0.159 | glycan array binding signal (z-score) [35]: -0.205 | glycan array binding signal (z-score) [36]: 0.099 | glycan array binding signal (z-score) [37]: -0.176 | glycan array binding signal (z-score) [38]: -0.172
